Source: PubChem BioAssay AID488969 (Vanderbilt High Throughput Screening Facility, 2010)
In all, about 110,000 compounds were measured (“z-score”: median about -0.1, highest 2% from about 2 on). This is one part of the list. The source made the active and inactive calls.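 The calls were made as follows: active = z-score in the third read window above 3 or below -3; inactive = the rest.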

target: Metabotropic glutamate receptor 8 (Rattus norvegicus) (UniProt P70579); experiment: mGluR8 Gi/Go-coupled signaling modulation – cell-based, rat, thallium flux, HTS, primary screen (AID 488969); conditions: HEK293 rat mGluR8, GIRK (G protein-gated inwardly rectifying potassium channel) thallium flux, FluoZin2; at 10 µM; stronger effect = higher value; submaximal glutamate (EC20) added with thallium
Chain of UniProt P70579 (P70579 whole entry, looked up): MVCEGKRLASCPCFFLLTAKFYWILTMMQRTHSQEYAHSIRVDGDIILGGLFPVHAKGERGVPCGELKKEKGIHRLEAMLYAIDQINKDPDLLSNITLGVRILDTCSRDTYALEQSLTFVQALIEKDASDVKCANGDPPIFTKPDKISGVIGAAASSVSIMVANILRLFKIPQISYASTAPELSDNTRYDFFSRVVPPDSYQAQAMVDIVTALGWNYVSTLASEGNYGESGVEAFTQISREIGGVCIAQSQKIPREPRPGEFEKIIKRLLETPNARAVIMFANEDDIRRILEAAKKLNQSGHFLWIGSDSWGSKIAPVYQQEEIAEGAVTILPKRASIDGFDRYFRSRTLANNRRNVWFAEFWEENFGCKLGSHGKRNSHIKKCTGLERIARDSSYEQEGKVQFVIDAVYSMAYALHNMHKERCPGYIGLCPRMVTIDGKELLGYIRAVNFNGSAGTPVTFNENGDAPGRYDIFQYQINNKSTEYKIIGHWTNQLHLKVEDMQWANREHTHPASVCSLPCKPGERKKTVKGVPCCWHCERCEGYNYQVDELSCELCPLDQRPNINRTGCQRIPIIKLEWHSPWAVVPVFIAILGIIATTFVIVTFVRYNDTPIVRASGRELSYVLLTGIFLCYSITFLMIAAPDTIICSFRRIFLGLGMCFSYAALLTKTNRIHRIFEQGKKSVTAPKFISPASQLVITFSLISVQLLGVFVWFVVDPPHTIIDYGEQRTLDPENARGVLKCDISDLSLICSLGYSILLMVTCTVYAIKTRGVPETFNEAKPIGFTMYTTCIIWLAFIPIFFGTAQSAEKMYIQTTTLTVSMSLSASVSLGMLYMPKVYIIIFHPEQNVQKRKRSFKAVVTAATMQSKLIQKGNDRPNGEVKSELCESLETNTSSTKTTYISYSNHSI

Compound | z-score
COc1ccc(CNC(=O)C2CCCN2S(=O)(=O)c2ccc(Cl)cc2)cc1 (stereo unspecified) | -1.04
CCCCCOc1ccc(C(=O)NCC2(c3ccccc3)CCOCC2)cc1 | -0.243
OC(CN1CCN(c2ccccc2)CC1)c1ccc2c(c1)CCN2 (stereo unspecified) | -0.587
COc1cc(CNCCO)ccc1OC1CCCC1 | 0.566
CC(=O)Nc1ccccc1C(=O)C(=O)Nc1ccc(C)c(C)c1 | 0.146
CC(NS(=O)(=O)c1ccccc1)C(=O)Nc1ccc(S(N)(=O)=O)cc1 (stereo unspecified) | 0.246
Cc1nc2cc(-c3ccccc3)nn2c(C)c1CCC(=O)NCc1ccco1 | 1.6
COc1cccc(NC(=O)CN2CCN(c3nc(-c4cccc(OC)c4)cs3)CC2)c1 | 0.209
COc1ccc(C(=O)COC(=O)C(C(C)C)N2C(=O)C3C4C=CC(C4)C3C2=O)cc1 (stereo unspecified) | -0.269
O=C(NC(=S)Nc1ccc(Br)cn1)c1cncc(Br)c1 | 0.371
Cc1cccc(/C=N/NC(=O)Cn2nccc2C)n1 | -0.0556
CC1(C)CC(=O)C2=C(C1)N(c1ccccc1)C(=O)CC2c1ccsc1 (stereo unspecified) | -0.712
CCOC(=O)c1c(C)oc(/N=C/c2ccccc2O)c1C#N | -0.204
Cn1c2c(c(=O)n(C)c1=O)C(NC(=O)C(C)(C)C)(C(F)(F)F)C(=O)N2 (stereo unspecified) | 0.115
CC(C)(C)c1cc(C(=O)N/N=C/c2ccc(F)cc2)n(-c2ccccc2)n1 | -1.22
Cc1ccccc1Cn1c(=N)n(CC(O)c2ccco2)c2ccccc21 (stereo unspecified) | active: 3.34
COc1cc(S(=O)(=O)N2CCN(c3ccccc3)CC2)ccc1Cl | -0.282
O=C(CC1NCCNC1=O)Nc1ccc(Oc2ccccc2)cc1 (stereo unspecified) | 0.267
CCC(=O)NC(Nc1cc(C)ccn1)(C(F)(F)F)C(F)(F)F | -0.164
COc1cccc(NC(=O)COC(=O)c2cccnc2)c1 | 0.159
O=C(NCCCc1ccccc1)c1ccccc1O | -0.211
O=C(Nc1ccc(F)cc1)Nc1nnc(-c2ccncc2)s1 | -0.449
CC(C)CC(C(=O)NCC1CCCO1)N(C(=O)Cn1nnc(-c2ccc(F)cc2)n1)c1ccccc1F (stereo unspecified) | -0.107

Compound | z-score
CCN1CCN(S(=O)(=O)c2ccc(OC)c(Br)c2)CC1 | 0.352
Cc1ccc(SCCC(=O)NC(C)C)cc1 | -0.0923
O=C1CN(C(=O)COC(=O)/C=C/c2ccc(OC(F)F)cc2)c2ccccc2N1 | 0.00817
CNC(=S)NNC(=O)c1sccc1OCc1cccc(C(F)(F)F)c1 | -0.766
COc1ccc(-c2nnc(SCc3nnc(-c4ccccc4)o3)n2-c2ccccc2)cc1 | -0.379
Cc1nnsc1NC(=O)OCc1ccc(C(C)(C)C)cc1 | -0.226
CC(c1ccco1)N(C(=O)c1cccs1)c1ccccn1 (stereo unspecified) | -0.72
Cc1ccc(S(=O)(=O)/N=C(\CSC(N)=O)Nc2ccccc2)cc1 | -0.288
O=C(NNC(=O)c1cccs1)c1ccc(Cl)c(Cl)c1 | -0.19
CC1CN(C2CCN(S(=O)(=O)c3ccccc3)CC2)CC(C)O1 (stereo unspecified) | -0.675
CCN(CCNC(=O)C1CCCN(S(=O)(=O)CC)C1)c1ccccc1 (stereo unspecified) | 0.155
COc1ccc(NC(=O)/C(Cl)=C(/Cl)S(=O)Cc2ccc(C)cc2)cn1 (stereo unspecified) | -0.487
Cc1ccc(-c2csc3ncn(-n4c(C)ccc4C)c(=O)c23)o1 | 0.169
O=C(Nc1cc(C(F)(F)F)ccc1N1CCOCC1)c1ccccc1F | -0.126
COc1cccc(N2CCN(Cc3nc(N)nc(N4CCCc5ccccc54)n3)CC2)c1 | -0.422
O=C1CCCCC1C(Nc1ccc(Br)cc1)c1ccccc1 (stereo unspecified) | 0.171
Cc1ccc(N2CCN(C(=O)CCc3nc4ccccc4[nH]3)CC2)c(C)c1 | 0.378
C=CCSc1nc(-c2ccccc2)c(C#N)c(=O)[nH]1 | -1.23
CCOC(=O)c1c(C)[nH]c(C(=O)Cn2nnc(-c3ccccc3Cl)n2)c1C | -0.366
CCOc1ccc(C(=O)Nc2cc(=O)n(C)c(=O)n2C)cc1 | -0.395
COc1ccc(C(=O)N2CCN(c3c(C)cccc3C)CC2)cc1OC | -0.427
CCn1cc(C(=O)N2CCN(C(=O)c3ccco3)CC2)c2cc(OC)c(OC)cc2c1=O | 0.191
CCOc1cc(-c2conc2N)cc(OCC)c1OCC | 0.888

Compound | z-score
O=C(COc1ccc(Br)cc1F)NC1CCN(Cc2ccccc2)CC1 | -0.42
O=c1oc2c3c(nn2c2ccccc12)CCCC3 | -0.15
C=CCNC(=O)c1ccc(-c2ccc([N+](=O)[O-])cc2)o1 | -0.231
COc1ccc(C(=O)Oc2coc(CSc3nnc(NC(=O)c4cccs4)s3)cc2=O)cc1 | 0.401
O=C(C1COc2ccccc2O1)N1CCn2c(nc3ccccc32)C1 (stereo unspecified) | -0.746
CCC(C)NC(=O)CS(=O)Cc1nc(-c2cccc(OC)c2)oc1C (stereo unspecified) | 0.0139
COc1ccc(OC(C)C(=O)Nc2cccc(OC)c2)cc1 (stereo unspecified) | -0.0173
CCOC(=O)N/N=C/c1c(F)c(F)c(F)c(F)c1F | 0.154
CCOC(=O)c1c(-c2ccc(OC)cc2)csc1/N=C/N(C)C | -0.193
CN(Cc1ccccc1)C(=O)COC(=O)c1cc(-c2ccc(Cl)s2)nc2ccccc12 | 0.667
CC(C)N(C(=O)CSc1nnc(Cn2nnc3ccccc32)n1C)C(C)C | -0.367
COCCn1c(C)cc(C2=NNC(=Nc3ccc(Cl)cc3Cl)SC2)c1C | -0.351
CCNC(=O)NC(=O)C(C)SCc1ccccc1C (stereo unspecified) | 0.101
Cc1noc(C)c1C(=O)Nc1ccccn1 | -0.19
CCNC(=O)COc1ccc(CC)cc1 | -0.912
CC(NC(=O)c1cc(-c2ccccc2)on1)c1ccccc1 (stereo unspecified) | -0.332
CCCCCCOc1ccc(/C=c2\s/c(=C(/C#N)C(=O)NCc3ccco3)n(-c3ccccc3)c2=O)cc1 | -0.272
CC(=O)C1C(=O)CC(C)(O)C(C(C)=O)C1c1ccc(N(C)C)cc1 (stereo unspecified) | 0.621
Cc1noc(C)c1CSc1cc(C)c2ccccc2n1 | 0.409
O=C1/C(=C/c2cccs2)Sc2ccccc21 | -0.152
O=C(c1ccco1)N1CCN(S(=O)(=O)c2ccc(Cl)s2)CC1 | -0.0642
CC(CN1CCOCC1)OC(=O)c1cccs1 (stereo unspecified) | -0.0471
O=C(CCn1c(=O)[nH]c2ccsc2c1=O)N1CC(=O)N(CCc2ccccc2)C(=O)C1 | 0.092

Compound | z-score
COc1cccc(-c2cc(C(=O)Nc3cc(OC)c(OC)c(OC)c3)no2)c1 | -0.916
NS(=O)(=O)c1ccc(NC(=O)CCc2ccccc2)cc1 | -0.0142
COc1cc(CC(=O)NCCc2ccc(OCc3ccccc3)cc2)c([N+](=O)[O-])cc1OC | 0.251
CCOc1cc(C)c(C(C)C)cc1S(=O)(=O)N1CCN(C)CC1 | -0.365
O=C(CN(c1cccc([N+](=O)[O-])c1)S(=O)(=O)c1ccccc1)NCc1ccccc1 | 0.014
O=c1[nH]c2ccccc2n1C1CCCCC1 | -1.04
O=C(O)C(Cc1cc2ccccc2[nH]1)N1C(=O)C2CC=C(Cl)CC2C1=O (stereo unspecified) | -0.308
Cc1ccc(NC(=O)/C(=C\c2ccccc2)NC(=O)/C=C/c2ccccc2)cc1 | -0.26
CC1(C)CC(=O)C2=C(C1)N(Cc1cccnc1)C(=O)C2(NC(=O)C1CC1)C(F)(F)F (stereo unspecified) | -0.22
CCOc1ccc(Cn2nnc(C(=O)NCCc3ccccc3)c2N)cc1 | -0.743
Cc1cccc(NC(=S)N(C)C2(c3ccccc3Cl)CCCCC2=O)c1 (stereo unspecified) | 0.385
C=CCNC1=C(Cl)C(=O)N(c2cccc(Cl)c2Cl)C1=O | 0.07
CC(=O)c1cccc(NS(=O)(=O)c2ccc3c(c2)oc(=O)n3C)c1 | -0.193
CCCc1nc(N)sc1C(=O)OCC | -0.131
Cc1ccc(S(=O)(=O)N2CC(O)CC2C(=O)OCC(=O)c2ccccc2Cl)cc1C (stereo unspecified) | 0.535
CCOc1ccc(C(C)=O)cc1CN1C(=O)NC2(CCCCC2C)C1=O (stereo unspecified) | 0.381
C/C(=N\NC(=O)c1ccccc1)c1ccccc1Br | 0.339
Cc1ccccc1C(=O)NC1CCN(Cc2nnnn2C2CCCC2)CC1 | -0.788
CCNC(=O)NC(=O)COC(=O)c1cccc(NS(=O)(=O)/C=C/c2ccccc2)c1 | -0.142
COc1ccc(-c2cc3ccccc3oc2=O)cc1NC(=O)c1ccc(Br)o1 | -0.49
Cc1ccc(NC(=S)N(Cc2cccs2)Cc2cc3cc(C)cc(C)c3[nH]c2=O)cc1 | -0.317
Cc1ccccc1-n1ncc2c([N+](=O)[O-])cc([N+](=O)[O-])cc21 | 0.0442
Cc1c(Cl)cccc1N=c1c([N+](=O)[O-])nn(-c2ccccc2)n1O | 0.329

Compound | z-score
CC(C)NC(=O)CSc1nc2ccccc2c(=O)n1CCCOC(C)C | 0.488
CCOc1cc(CN2CCOCC2)cc(C(C)=O)c1 | 0.314
O=C(O)CC1=C(O)C(=O)N(c2ccccc2)C1c1ccc(Cl)cc1 (stereo unspecified) | -0.135
O=C1N/C(=C/c2ccc(Br)cc2)C(O)=C1C=NCc1ccccc1 | -0.0497
O=C(CSc1ncn[nH]1)Nc1ccc2c(c1)OCCO2 | 0.155
O=S(=O)(NCC(c1cccnc1)N1CCOCC1)c1cccs1 (stereo unspecified) | 0.0742
CCOc1ccc(N2C(=O)/C(=C/c3cccs3)N(CC(=O)OC)C2=S)cc1 | -0.17
COc1ccc(CN2CCCCC2C(=O)Nc2ccc(OC)c(OCC(C)C)c2)cc1OC (stereo unspecified) | -0.0415
O=C(Cn1cnc2ccccc21)Nc1ccc(C(=O)O)cc1 | -0.114
Cc1ccsc1C1C(C(=O)O)c2ccccc2C(=O)N1C (stereo unspecified) | -0.418
CN(CC(=O)N1CCN(c2ccc(F)cc2)CC1)S(=O)(=O)c1ccc(F)cc1 | -0.445
Cc1ccc(NC(=O)c2nn(C34CC5CC(CC(C5)C3)C4)cc2[N+](=O)[O-])cc1 | -0.104
Cn1c(=O)c2c(nc(SCc3nn[nH]n3)n2Cc2ccccc2F)n(C)c1=O | 0.363
CCCc1nnc(SCc2ccc(OC)cc2)n1N | -0.405
C/C(Cl)=C/Cc1c(C)[nH]c2ccc(C)cc2c1=O | -0.0588
CSc1nc(N(C)C)nc(N2CC(=O)N(CCNS(=O)(=O)c3ccc(C)cc3)C2=N)n1 | -0.172
COC(=O)c1ccc(/C=N\NC(=O)c2ccc(C)cc2Cl)cc1 | -0.0684
O=C(CNC(=O)c1cnccn1)Nc1ccc(F)c(F)c1F | -0.21
COc1cccc(CN(C)CC(=O)NC(=O)NCc2ccccc2)c1 | 0.16
